About 16,000 (7.3%) of roughly 220,000 compounds were called active. Inconclusive means that the source gave no clear call. Such entries were picked first, then a sample of the others. Calls come from the whole dose curve; as a rule, active = well fitted inhibition curve with a large enough effect (not every such curve was filed as active); inconclusive = small, poorly fitted or top-dose-only effect, or another doubt; inactive = no such curve, though single readings can be large or run the other way. No potency is given beside an inconclusive call; the fits are too rough.
target: Aldehyde dehydrogenase 1A1 (Homo sapiens) (UniProt P00352); assay: qHTS Assay for Inhibitors of Aldehyde Dehydrogenase 1 (ALDH1A1); conditions: Purified ALDH1A1, NADH fluorescence, propionaldehyde substrate; series mostly up to 75.3 µM
Potency is the fitted concentration of half-maximal effect; tags give direction and shape of the fitted curve.

UniProt P00352, sequence (P00352 whole entry, looked up): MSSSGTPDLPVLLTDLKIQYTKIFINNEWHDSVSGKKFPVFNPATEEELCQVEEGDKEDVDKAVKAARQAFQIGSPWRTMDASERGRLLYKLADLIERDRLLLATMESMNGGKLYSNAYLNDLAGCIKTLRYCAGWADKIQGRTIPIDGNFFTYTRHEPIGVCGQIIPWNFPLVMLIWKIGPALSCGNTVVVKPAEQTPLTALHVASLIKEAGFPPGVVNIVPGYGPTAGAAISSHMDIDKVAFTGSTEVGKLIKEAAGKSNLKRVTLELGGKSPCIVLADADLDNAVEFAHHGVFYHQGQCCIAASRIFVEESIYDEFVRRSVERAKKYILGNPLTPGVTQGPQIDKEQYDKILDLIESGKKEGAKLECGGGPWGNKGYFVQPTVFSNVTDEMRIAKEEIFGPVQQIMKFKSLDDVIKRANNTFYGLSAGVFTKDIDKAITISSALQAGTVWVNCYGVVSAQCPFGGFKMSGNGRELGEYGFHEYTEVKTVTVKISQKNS

Row | SMILES | Potency
1 | O=C1C=C(N2CCN(C(=O)c3ccccc3)CC2)C2(CCCCC2)O1 | inconclusive [inhibitor, partial curve]
2 | CC1=NNC(=O)C1C(c1ccccc1)C(C#N)C#N (stereo unspecified) | inconclusive [inhibitor, single point]
3 | CCCCCn1c(CN2CCN(c3cccc(Cl)c3)CC2)nc2c1c(=O)[nH]c(=O)n2C | inconclusive [inhibitor, partial curve]
4 | CN(C)/C=C/C(=O)c1ccc(Br)s1 | inconclusive [inhibitor, single point]
5 | CCOCCCNC(=S)N1CCCN(c2nc3cc(C)cc(C)c3cc2C#N)CC1 | inconclusive [inhibitor, single point]
6 | COc1cc(/C=C/c2cc(C(F)(F)F)[nH]c(=O)n2)cc(OC)c1OC | inconclusive [inhibitor, single point]
7 | OC[C@H](S)CS | active: 0.1 µM
8 | Cc1nc2nc[nH]c2cc1Br | inactive
9 | S=c1[nH]nc(CSCCOc2ccc(Cl)cc2Cl)o1 | active: 0.1 µM
10 | O=C(O)c1ccc(CSc2nc3ccccc3o2)cc1 | inactive
11 | CCN(CCNC(=O)CN1CCN(Cc2ccc(Cl)cc2)C1=O)c1ccccc1 | inconclusive [inhibitor, partial curve]
12 | ClCC1CSC(=NC23CC4CC(CC(C4)C2)C3)O1 (stereo unspecified) | inconclusive [inhibitor, partial curve]
13 | CC(=O)Nc1ccc(NC(=O)c2c(C)nc3ccccn23)cc1 | inactive
14 | C/C(CCCO)=N/Nc1ccc([N+](=O)[O-])cc1[N+](=O)[O-] | inactive
15 | COc1ccc(C(=O)n2cc(C(=O)c3cc(C)ccc3O)cn2)cc1 | active: 0.398 µM
16 | CC(=O)c1ccc(NC(=O)C(C)N(C)CC(=O)Nc2ccc(N3CCOCC3)cc2)cc1 (stereo unspecified) | inconclusive [inhibitor, partial curve, poor fit]
17 | CCOc1ccc(CNC(=O)c2cc3oc4ccccc4c3n2C)cc1 | inconclusive [inhibitor, single point]
18 | COc1ccc(CCNC2CC(=O)N(C)C2=O)cc1OC (stereo unspecified) | inconclusive [inhibitor, single point]
19 | CCOC(=O)C(Cc1ccc(NC(=O)/C(=C\c2ccccc2)NC(=O)c2ccccc2)cc1)N1C(=O)c2ccccc2C1=O (stereo unspecified) | inactive
20 | CCC(=O)Nc1cc(=O)[nH]c2ncnn12 | inactive
21 | Cc1cc(C)c2nc(-c3ccccn3)cc(C(=O)Nc3cc(C)on3)c2c1 | inconclusive [inhibitor, partial curve]
